Results reported in PubChem BioAssay (NCI).
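Five concentrations, 48 hours, 96-well plates. GI50 marks 50% less growth.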 The source holds more than one record for some entries. They are shown here; other results are not. The source may hold further records. For part of these data: The tests behind the records often covered other concentration ranges, not given here; some values may only mark the edge of a range.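 TGI denotes the concentration required for complete inhibition of growth.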 For part of these data: The values listed for one entry repeat one measurement across runs, samples, wells, individuals or studies. Marks in square brackets tell the records apart. Letters hold for one entry only.

Legend:
Experiment in all cases: NCI anticancer screen, dose series, 48 h
[1] = tested on: T-47D breast
[2] = tested on: SK-MEL-2 melanoma
[3] = tested on: HL-60(TB) leukemia
[4] = tested on: SW-620 colon
[5] = tested on: HCC-2998 colon
[6] = tested on: MCF7 breast
[7] = tested on: MOLT-4 leukemia
[8] = tested on: COLO 205 colon
[9] = tested on: KM12 colon
[10] = tested on: CCRF-CEM leukemia
[11] = tested on: RPMI-8226 leukemia
[12] = tested on: K-562 leukemia

| SMILES | GI50 [1] | TGI [2] | TGI [3] | TGI [4] | TGI [5] | TGI [6] | TGI [7] | TGI [8] | TGI [9] | TGI [10] | TGI [11] | TGI [12] |
| --- | --- | --- | --- | --- | --- | --- | --- | --- | --- | --- | --- | --- |
| NC(=O)c1ccc2nc(-c3ccc(Oc4ccc(Cl)cc4)cc3)[nH]c2c1 | 4.49 µM [1 test] and > 75 µM [mean of 2 tests] | – | – | – | – | – | – | – | – | – | – | – |
| CCCCCCCCCCCC1CCCC(C)N1 (configuration not stated) | – | 14.9 µM [sample A] and 152 µM [sample B] | 3.02 µM [sample A] and 32.6 µM [sample B] | 9.25 µM [sample A] and 131 µM [sample B] | 4.3 µM [sample A] and 114 µM [sample B] | 12.4 µM [sample A] and 126 µM [sample B] | 4.73 µM [sample A] and 55.7 µM [sample B] | 2.93 µM [sample A] and 106 µM [sample B] | 8.63 µM [sample A] and 91.5 µM [sample B] | 5.7 µM [sample A] and 95.8 µM [sample B] | 4.82 µM [sample A] and 74.8 µM [sample B] | 7.64 µM [sample A] and 84.4 µM [sample B] |
